Measured values taken from US12043670B2, “Anti-BCMA antibody-drug conjugates and methods of use” (Eisai R&D Management Co., Ltd., priority 2020, dated 2024).

B1: AB200-R1a-Fab_VH3 (antibody)
heavy: QVQLVQSGAEVKKPGSSVKVSCKASGGTFSNYWMSWVRQAPGQGLEWMGATYRGHSQTYYNQKFKGRVTITADKSTSTAYMELSSLRSEDTAVYYCARGAVYHGYDVLDNWGQGTLVTVSSASTKGPSVFPLAPSSKSTSGGTAALGCLVKDYFPEPVTVSWNSGALTSGVHTFPAVLQSSGLYSLSSVVTVPSSSLGTQTYICNVNHKPSNTKVDKKVEPKSC
light: DIQMTQSPSSLSASVGDRVTITCSATQDISNYLNWYQQKPGKAPKLLIYFTSNLQSGVPSRFSGSGSGTDFTLTISSLQPEDFATYYCQQYRKLPWTFGQGTKLEIKRTVAAPSVFIFPPSDEQLKSGTASVVCLLNNFYPREAKVQWKVDNALQSGNSQESVTEQDSKDSTYSLSSTLTLSKADYEKHKVYACEVTHQGLSSPVTKSFNRGEC
B2: AB200-R1a-Fab_VH54 (antibody)
heavy: B1 heavy with S35H, S56G, Q57D, Y59F, V101I, D109N
light: B1 light
B3: AB200-R1a-Fab_VH56 (antibody)
heavy: B1 heavy with M34I, S35H, Q57D, K65R, A100T, V101I
light: B1 light
B4: AB200-R1a-Fab_VH57 (antibody)
heavy: B1 heavy with F29Y, W33Y, S35H, Q57E, V101I
light: B1 light
B5: AB200-R1a-Fab_VH59 (antibody)
heavy: B1 heavy with S25T, W33A, S35H, T51S, Q57D, V101I
light: B1 light
B6: AB200-R1a-Fab_VH60 (antibody)
heavy: B1 heavy with N31S, S35H, G54I, Q57D, T58S, V101I
light: B1 light
B7: AB200-R1a-Fab_VH4 (antibody)
heavy: B1 heavy with S25T, S35H, Q57N, N61D, V101I
light: B1 light
B8: AB200-R1a-Fab_VH5 (antibody)
heavy: B1 heavy with S35H, Q57D, T58S, Y59N, Q62N, V101I
light: B1 light
B9: AB200-R1a-Fab_VH8 (antibody)
heavy: B1 heavy with S35H, G54S, Q57D, K74E, V101I, Y102F
light: B1 light
B10: AB200-R1a-Fab_VH13 (antibody)
heavy: B1 heavy with S35H, Q57T, N61A, F64Y, V101I
light: B1 light
B11: AB200-R1a-Fab_VH15 (antibody)
heavy: B1 heavy with F29Y, S35H, Q57D, T58A, K63R, V101I
light: B1 light
B12: AB200-R1a-Fab_VH16 (antibody)
heavy: B1 heavy with N31T, S35H, G54I, Q57D, K74E, V101I
light: B1 light
B13: AB200-R1a-Fab_VH17 (antibody)
heavy: B1 heavy with N31S, S35H, Q57D, N61A, V101I, D106E
light: B1 light
B14: AB200-R1H26-R2Vk19 (antibody)
heavy: B1 heavy with T28S, S35H, G54I, Q57D, Y59F, V101I
light: B1 light with S24R, T26S, D28S, N31S, F50A, K93R, T97S
B15: AB200-R1H26-R2Vk20 (antibody)
heavy: B1 heavy with T28S, S35H, G54I, Q57D, Y59F, V101I
light: B1 light with S24R, T26S, D28S, N31S, F50A, K93R, L94I
B16: AB200-R1H26-R2Vk21 (antibody)
heavy: B1 heavy with T28S, S35H, G54I, Q57D, Y59F, V101I
light: B1 light with S24R, T26S, D28S, N31S, F50A, Y91F, K93R
B17: AB200-R1H26-R2Vk22 (antibody)
heavy: B1 heavy with T28S, S35H, G54I, Q57D, Y59F, V101I
light: B1 light with S24R, T26S, D28S, N31S, F50A, L94I, T97S
B18: AB200-R1H26-R2Vk23 (antibody)
heavy: B1 heavy with T28S, S35H, G54I, Q57D, Y59F, V101I
light: B1 light with S24R, T26S, D28S, N31S, F50A, Y91F, L94I
B19: AB200-R1H26-R2Vk24 (antibody)
heavy: B1 heavy with T28S, S35H, G54I, Q57D, Y59F, V101I
light: B1 light with S24R, T26S, D28S, N31S, F50A, L54I, K93R, T97S
B20: AB200-R1H26-R2Vk25 (antibody)
heavy: B1 heavy with T28S, S35H, G54I, Q57D, Y59F, V101I
light: B1 light with S24R, T26S, D28S, N31S, F50A, L54I, K93R, L94I
B21: AB200-R1H26-R2Vk26 (antibody)
heavy: B1 heavy with T28S, S35H, G54I, Q57D, Y59F, V101I
light: B1 light with S24R, T26S, D28S, N31S, F50A, L54I, Y91F, K93R
B22: AB200-R1H26-R2Vk29 (antibody)
heavy: B1 heavy with T28S, S35H, G54I, Q57D, Y59F, V101I
light: B1 light with S24R, T26S, D28S, N31S, F50A, S56I, K93R, T97S
B23: AB200-R1H26-R2Vk30 (antibody)
heavy: B1 heavy with T28S, S35H, G54I, Q57D, Y59F, V101I
light: B1 light with S24R, T26S, D28S, N31S, F50A, S56I, K93R, L94I
B24: AB200-R1H26-R2Vk31 (antibody)
heavy: B1 heavy with T28S, S35H, G54I, Q57D, Y59F, V101I
light: B1 light with S24R, T26S, D28S, N31S, F50A, S56I, Y91F, K93R
B25: AB200-R1H26-R2Vk1 (antibody)
heavy: B1 heavy with T28S, S35H, G54I, Q57D, Y59F, V101I
light: B1 light with S24R, T26S, D28S, N31S, F50A, T51A, N53S, Y91F, T97S
B26: AB200-R1H26-R2Vk32 (antibody)
heavy: B1 heavy with T28S, S35H, G54I, Q57D, Y59F, V101I
light: B1 light with S24R, T26S, D28S, N31S, F50A, S56I, L94I, T97S
B27: AB200-R1H26-R2Vk33 (antibody)
heavy: B1 heavy with T28S, S35H, G54I, Q57D, Y59F, V101I
light: B1 light with S24R, T26S, D28S, N31S, F50A, S56I, Y91F, L94I
B28: AB200-R1H26-R2Vk34 (antibody)
heavy: B1 heavy with T28S, S35H, G54I, Q57D, Y59F, V101I
light: B1 light with S24R, T26S, D28S, N31S, L33I, F50A, K93R, T97S

Assay: ThermoFluor thermostability (Tm)
Format: physicochemical
Conditions: Heavy chain screening Round 1; Fab, paired with light chain AB200_VK6
B1 showed a Tm of 78.657 °C. Molecule B2 has a Tm of 79.432 °C. B3 showed a Tm of 84.368 °C. In the case of B4, the Tm is reported as 80.273 °C. With B5 the Tm was 84.514 °C. Molecule B6 has a Tm of 79.241 °C. For B7, the Tm was 78.011 °C. B8 gave a Tm of 78.702 °C. In the case of B9, the Tm is reported as 81.348 °C. Molecule B10 has a Tm of 79.465 °C. B11 showed a Tm of 79.976 °C. B12 showed a Tm of 80.661 °C. Molecule B13 has a Tm of 80.449 °C.

Same assay, conditions: Light chain screening Round 2; Fab, paired with heavy chain AB200_R1_VH26
In the case of B14, the Tm is reported as 79.896 °C. Molecule B15 has a Tm of 81.004 °C. In the case of B16, the Tm is reported as 84.095 °C. Work on B17 yielded a Tm of 79.661 °C. B18 gave a Tm of 83.321 °C. B19 gave a Tm of 79.357 °C. With B20 the Tm was 80.300 °C. With B21 the Tm was 83.451 °C. B22 gave a Tm of 80.138 °C. B23 gave a Tm of 81.085 °C. For B24, the Tm was 83.337 °C. B25 gave a Tm of 82.409 °C. In the case of B26, the Tm is reported as 80.094 °C. B27 gave a Tm of 83.936 °C. In the case of B28, the Tm is reported as 79.150 °C.

Positions count from the first letter of the chain named.
